Patent publication US20130115213A1 (AFFIMED THERAPEUTICS, published 2013)

Experiments:
[1] = target: T1, human CD3 (TCR/CD3 complex) on the cell surface (human, UniProt P07766); assay: cell surface retention on CD3+ Jurkat cells at 37 C; ln2/koff
T1 construct: whole, on cells; On cells CD3 stands as the whole TCR/CD3 complex; also called CD3+ Jurkat cells
Experimental: (§1) To investigate the biological relevance of the differences between scFv₆, scFv₁₀ and OKT3 in direct binding experiments, the in vitro retention of the scFv-antibodies on the surface of CD3⁺ Jurkat cells was determined by flow cytometry (FIG. 7). Cell surface retention assays were performed at 37° C. under conditions preventing internalization of cell surface antigens, as described (Adams et al., 1998, Cancer Res. 58, 485-490), except that the detection of retained scFv-antibodies was performed using mouse anti-(His)₆ mAb 13/45/31-2 (0.01 mg/ml; Dianova, Hamburg, Germany) followed by FITC-conjugated goat anti-mouse IgG (0.015 mg/ml; Dianova, Hamburg, Germany). Kinetic dissociation constant (koff) and half-life (t_{1/2}) values for dissociation of antibodies were deduced from a one-phase exponential decay fit of experimental data using the software program PRISM (GraphPad Software, San Diego, Calif.).

[2] = target: T1, human CD3 (TCR/CD3 complex) on the cell …; assay: flow cytometry on CD3+ Jurkat cells; reference scFv10
Experimental: The human CD3⁺ T-cell leukemia cell line Jurkat was used for flow cytometry experiments. The cells were cultured in RPMI 1640 medium supplemented with 10% heat-inactivated fetal calf serum (FCS), 2 mM L-glutamine, 100 U/mL penicillin G sodium and 100 μg/ml streptomycin sulfate (all from Invitrogen, Groningen, The Netherlands) at 37° C. in a humidified atmosphere with 5% CO₂. 1×10⁶ cells were incubated with 0.1 ml phosphate buffered saline (PBS, Invitrogen, Groningen, The Netherlands) supplemented with 2% heat-inactivated fetal calf serum (FCS, Invitrogen, Groningen, The Netherlands) and 0.1% sodium azide (Roth, Karlsruhe, Germany) (referred to as FACS buffer) containing diluted scFv-antibodies or mAb OKT3 (Orthoclone OKT3, Cilag, Sulzbach, Germany) for 45 min on ice. After washing with FACS buffer, the cells were incubated with 0.1 ml of 0.01 mg/ml anti-(His)₆ mouse mAb 13/45/31-2 (Dianova, Hamburg, Germany) in the same buffer for 45 min on ice. […] The fluorescence of 1×10⁴ stained cells was measured using a Beckman-Coulter Epics XL flow cytometer (Beckman-Coulter, Krefeld, Germany). Mean fluorescence (F) was calculated using System-II and Expo32 software (Beckman-Coulter, Krefeld, Germany) and the background fluorescence was subtracted. […]

[3] = target: T1, human CD3 (TCR/CD3 complex) on the cell …; assay: cell surface retention on CD3+ Jurkat cells at 37 C, flow cytometry, one-phase exponential decay fit
Experimental: as §1

[4] = target: T1, human CD3 (TCR/CD3 complex) on the cell …; assay: flow cytometry on CD3+ Jurkat cells, Lineweaver-Burk fit
Experimental: The human CD3⁺ T-cell leukemia cell line Jurkat was used for flow cytometry experiments. The cells were cultured in RPMI 1640 medium supplemented with 10% heat-inactivated fetal calf serum (FCS), 2 mM L-glutamine, 100 U/mL penicillin G sodium and 100 μg/ml streptomycin sulfate (all from Invitrogen, Groningen, The Netherlands) at 37° C. in a humidified atmosphere with 5% CO₂. 1×10⁶ cells were incubated with 0.1 ml phosphate buffered saline (PBS, Invitrogen, Groningen, The Netherlands) supplemented with 2% heat-inactivated fetal calf serum (FCS, Invitrogen, Groningen, The Netherlands) and 0.1% sodium azide (Roth, Karlsruhe, Germany) (referred to as FACS buffer) containing diluted scFv-antibodies or mAb OKT3 (Orthoclone OKT3, Cilag, Sulzbach, Germany) for 45 min on ice. After washing with FACS buffer, the cells were incubated with 0.1 ml of 0.01 mg/ml anti-(His)₆ mouse mAb 13/45/31-2 (Dianova, Hamburg, Germany) in the same buffer for 45 min on ice. […] The fluorescence of 1×10⁴ stained cells was measured using a Beckman-Coulter Epics XL flow cytometer (Beckman-Coulter, Krefeld, Germany). Mean fluorescence (F) was calculated using System-II and Expo32 software (Beckman-Coulter, Krefeld, Germany) and the background fluorescence was subtracted.

[5] = target: T1, human CD3 (TCR/CD3 complex) on the cell …; assay: cell surface retention on CD3+ Jurkat cells at 37 C; reference scFv10
Experimental: as §1

T1 sequence (P07766 23-207, one chain of several): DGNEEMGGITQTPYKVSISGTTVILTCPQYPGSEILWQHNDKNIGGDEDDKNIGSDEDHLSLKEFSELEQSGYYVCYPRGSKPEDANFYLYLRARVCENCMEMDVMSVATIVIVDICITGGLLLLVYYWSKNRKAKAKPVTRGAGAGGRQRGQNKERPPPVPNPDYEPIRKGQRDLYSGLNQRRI

B1: anti-CD3 scFv6 (scFv)
scFv: QVQLQQSGAELARRGASVKMS[letters of about 80 residues omitted]WGQGTTLTVSSAKTTPDIVLTQSPAIMSASPGEKVTMTCSASSSVSYMNWYQQKSGTSPKRWIYDTSKLASGVPAHFRGSGSGTSYSLTISGMEAEDAATYYCQQWSSNPFTFGSGTKLEINRADTAAAGSHHHHHH
notes: VH-SAKTTP-VL with six C-terminal histidine residues, made in the E. coli periplasm with a PelB leader; also called bivalent scFv6; diabody
- t1/2 [1]: 1.48 min
- fold difference in affinity against scFv10 [2]: 10 fold
- koff [3]: 0.00782 s⁻¹
- Kd [4]: 4.58 nM
- fold longer t1/2 against scFv10 [5]: 1.5 fold
